Source: paper PMC5540273 (PLoS ONE, 2017)
For some assays here: This list holds what a sample rich in strong results left over. The entries are a selection whose mix differs from that of the whole data set. The list shows a part of the results.

Assays:
AAK1 = conditions: concentration: 1 μM,replicates: in singlicate; n = 1
ABL1-nonphosphorylated = conditions: concentration: 1 μM,replicates: in singlicate; n = 1
ABL1-phosphorylated = conditions: concentration: 1 μM,replicates: in singlicate; n = 1
ABL2 = conditions: concentration: 1 μM,replicates: in singlicate; n = 1
ACVR1B = conditions: concentration: 1 μM,replicates: in singlicate; n = 1
ACVR1 = conditions: concentration: 1 μM,replicates: in singlicate; n = 1
ACVR2A = conditions: concentration: 1 μM,replicates: in singlicate; n = 1
ACVR2B = conditions: concentration: 1 μM,replicates: in singlicate; n = 1
ACVRL1 = conditions: concentration: 1 μM,replicates: in singlicate; n = 1
ADCK3 = tested on: T1, ADCK3; conditions: concentration: 1 μM,replicates: in singlicate; n = 1
T1 construct: gene CABC1

ADCK4 = conditions: concentration: 1 μM,replicates: in singlicate; n = 1
AKT1 = conditions: concentration: 1 μM,replicates: in singlicate; n = 1
AKT2 = conditions: concentration: 1 μM,replicates: in singlicate; n = 1
AKT3 = conditions: concentration: 1 μM,replicates: in singlicate; n = 1
ALK = conditions: concentration: 1 μM,replicates: in singlicate; n = 1
AMPK-alpha1 = tested on: T2, AMPK-alpha1; conditions: concentration: 1 μM,replicates: in singlicate; n = 1
T2 construct: gene PRKAA1

AMPK-alpha2 = tested on: T3, AMPK-alpha2; conditions: concentration: 1 μM,replicates: in singlicate; n = 1
T3 construct: gene PRKAA2

ANKK1 = conditions: concentration: 1 μM,replicates: in singlicate; n = 1
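Throughout, for %Inh: KINOMEscan kinase panel screen.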
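Throughout, for Kd: kd values determined as follow-up on hits from a single-replicate KINOMEscan panel screen.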

SMILES | %Inh (AAK1) | %Inh (ABL1-nonphosphorylated) | %Inh (ABL1-phosphorylated) | %Inh (ABL2) | %Inh (ACVR1B) | %Inh (ACVR1) | %Inh (ACVR2A) | %Inh (ACVR2B) | %Inh (ACVRL1) | %Inh (ADCK3) | %Inh (ADCK4) | %Inh (AKT1) | %Inh (AKT2) | %Inh (AKT3) | %Inh (ALK) | %Inh (AMPK-alpha1) | %Inh (AMPK-alpha2) | %Inh (ANKK1) | Kd (ZAP70)
O=C1NC(=O)C(c2ccc(Cl)cc2)=C1Nc1cccc(C(=O)O)c1 [SB-360737] | 6% | 5% | 14% | 15% | 0% | 6% | 0% | 6% | 0% | 5% | 22% | 0% | 6% | 0% | 24% | 0% | 16% | 3% | –
O=C1NC(=O)C(c2ccc(Cl)cc2)=C1Nc1ccccc1 [SB-317661] | 0% | 12% | 30% | 0% | 0% | 0% | 0% | 0% | 0% | 0% | 0% | 0% | 0% | 0% | 77% | 0% | 0% | 5% | > 10 µM
COc1ccc(C2=C(Nc3cccc(Cl)c3)C(=O)NC2=O)cc1 [SB-326892] | 0% | 10% | 0% | 1% | 20% | 0% | 3% | 20% | 16% | 18% | 18% | 0% | 0% | 17% | 0% | 18% | 0% | 0% | –
O=C1NC(=O)c2c1c(-c1ccccc1)cc1[nH]c3ccc(O)cc3c21 | – | – | 39% | 18% | 25% | 0% | 0% | 0% | 0% | 8% | 5% | 0% | 20% | 96.9% | 8% | 80% | 80% | 33% | –
CS(=O)(=O)c1ccccc1-c1nc(-c2ccc(F)cc2)c(-c2ccncc2)[nH]1 [SB-213663] | 0% | 53% | 0% | 0% | 4% | 0% | 0% | 0% | 0% | 0% | 12% | 0% | 0% | 25% | 17% | 0% | 0% | 0% | –
O=C1NC(=O)C(c2ccccc2)=C1Nc1cc(Cl)c(O)c(Cl)c1 [SB-390530] | 0% | 31% | 0% | 19% | 3% | 0% | 10% | 23% | 0% | 0% | 3% | 2% | 21% | 0% | 0% | 17% | 9% | 15% | –
O=C1NC(=O)C(c2ccccc2Cl)=C1Nc1ccccc1 [SB-376715] | 5% | 0% | 0% | 1% | 0% | 20% | 0% | 0% | 0% | 14% | 11% | 0% | 2% | 47% | 0% | 23% | 0% | 0% | –
CSc1ccc(NC2=C(c3cccc(Cl)c3)C(=O)NC2=O)cc1 [SB-341528] | 0% | 11% | 15% | 0% | 0% | 0% | 24% | 0% | 0% | 7% | 7% | 0% | 0% | 15% | 20% | 0% | 0% | 16% | –
